According to the antibiotic and cytotoxicity screens of Wong et al. (2023):
This is one part of the list.

What was measured:
HSkMC = human skeletal muscle cells; assay: cytotoxicity call (relative viability < 0.9); details: 10 µM
HepG2 = assay: cytotoxicity call (relative viability < 0.9); details: 10 µM
S. aureus RN4220 = assay: growth inhibition call (relative growth <= 0.2); details: 50 µM

CC1=C(C(=O)OCCN(Cc2ccccc2)c2ccccc2)[C@H](c2cccc([N+](=O)[O-])c2)C(P2(=O)OCC(C)(C)CO2)=C(C)N1
inactive: cytotoxicity call (HSkMC) | cytotoxicity call (HepG2) | growth inhibition call (S. aureus RN4220)

COc1ccc(S(=O)(=O)N(C)C[C@H]2Oc3c(NC(=O)Nc4c(C)noc4C)cccc3C(=O)N([C@@H](C)CO)C[C@H]2C)cc1
inactive: cytotoxicity call (HSkMC) | cytotoxicity call (HepG2) | growth inhibition call (S. aureus RN4220)

CCc1nc2ccc(C(=O)Nc3cccc(OC)c3)cn2c1N(CC)Cc1cccc(Br)c1
inactive: cytotoxicity call (HSkMC) | cytotoxicity call (HepG2) | growth inhibition call (S. aureus RN4220)

CC(C)=CCC/C(C)=C/C=C/C(C)=C/C=C/C(C)=C/C=C/C=C(C)/C=C/C=C(C)/C=C/C=C(\C)CCC=C(C)C
inactive: cytotoxicity call (HSkMC) | cytotoxicity call (HepG2) | growth inhibition call (S. aureus RN4220)

CC(C)c1ccc2c(c1)C(=O)[C@H](N)CCO2
inactive: cytotoxicity call (HSkMC) | cytotoxicity call (HepG2) | growth inhibition call (S. aureus RN4220)

C[C@@H]1CN([C@H](C)CO)C(=O)c2cccc(NC(=O)c3nc4ccccc4s3)c2O[C@H]1CN(C)C(=O)Nc1cccc2ccccc12
inactive: cytotoxicity call (HSkMC) | cytotoxicity call (HepG2) | growth inhibition call (S. aureus RN4220)

COc1ccc(NC(=O)N(C)C[C@H]2Oc3c(NC(=O)Nc4ccc(C(F)(F)F)cc4)cccc3C(=O)N([C@H](C)CO)C[C@@H]2C)cc1
inactive: cytotoxicity call (HSkMC) | cytotoxicity call (HepG2) | growth inhibition call (S. aureus RN4220)

Cc1ccc(S(=O)(=O)N(C)C[C@@H]2OCCCC[C@@H](C)Oc3ccc(NC(=O)Nc4ccccc4)cc3C(=O)N([C@H](C)CO)C[C@@H]2C)cc1
inactive: cytotoxicity call (HSkMC) | cytotoxicity call (HepG2) | growth inhibition call (S. aureus RN4220)

COc1ccc(NC(=O)Nc2ccc3c(c2)C(=O)N([C@H](C)CO)C[C@H](C)[C@@H](CN(C)S(=O)(=O)c2c(C)noc2C)OCCCC[C@H](C)O3)cc1
inactive: cytotoxicity call (HSkMC) | cytotoxicity call (HepG2) | growth inhibition call (S. aureus RN4220)

C[C@@H]1CN([C@@H](C)CO)C(=O)c2cc(NC(=O)C3CCCCC3)ccc2O[C@@H](C)CCCCO[C@@H]1CN(C)Cc1ccc(C(F)(F)F)cc1
inactive: cytotoxicity call (HSkMC) | cytotoxicity call (HepG2) | growth inhibition call (S. aureus RN4220)

C=CCOC(=O)[C@H]1[C@@H]2C(=O)O[C@@H](c3ccccc3)[C@@H](c3ccccc3)N2[C@@H](c2ccc(OCCOC(=O)[C@@H]3C[C@@H]4C(=O)N[C@@H](Cc5ccccc5)C(=O)N4[C@@H]3c3ccc(O)cc3)cc2)[C@]12C(=O)Nc1ccc(I)cc12
inactive: cytotoxicity call (HSkMC) | cytotoxicity call (HepG2) | growth inhibition call (S. aureus RN4220)

C[C@@H]1CN([C@@H](C)CO)C(=O)c2cccc(NS(C)(=O)=O)c2O[C@@H]1CN(C)Cc1ccc(C(=O)O)cc1
inactive: cytotoxicity call (HSkMC) | cytotoxicity call (HepG2) | growth inhibition call (S. aureus RN4220)

Cc1noc(C)c1S(=O)(=O)N(C)C[C@@H]1Oc2c(NS(=O)(=O)c3cn(C)cn3)cccc2C(=O)N([C@@H](C)CO)C[C@@H]1C
inactive: cytotoxicity call (HSkMC) | cytotoxicity call (HepG2) | growth inhibition call (S. aureus RN4220)

C[C@@H]1CN([C@H](C)CO)S(=O)(=O)c2ccc(C#CC3CCCCC3)cc2O[C@@H]1CN(C)C(=O)Cc1ccncc1
inactive: cytotoxicity call (HSkMC) | cytotoxicity call (HepG2) | growth inhibition call (S. aureus RN4220)

C[C@H](CO)N1C[C@H](C)[C@@H](CN(C)C(=O)Nc2ccc(C(F)(F)F)cc2)OCCCC[C@H](C)Oc2ccc(NC(=O)Nc3cccc4ccccc34)cc2C1=O
inactive: cytotoxicity call (HSkMC) | cytotoxicity call (HepG2) | growth inhibition call (S. aureus RN4220)

C[C@@H]1CN([C@@H](C)CO)C(=O)c2cc(NS(=O)(=O)c3cccs3)ccc2O[C@@H](C)CCCCO[C@H]1CN(C)C(=O)CCC(F)(F)F
inactive: cytotoxicity call (HSkMC) | cytotoxicity call (HepG2) | growth inhibition call (S. aureus RN4220)

CCCN1C[C@@H](C)[C@@H](OC)CN(C)C(=O)c2cc(NS(=O)(=O)c3cn(C)cn3)ccc2OC[C@@H]1C
inactive: cytotoxicity call (HSkMC) | cytotoxicity call (HepG2) | growth inhibition call (S. aureus RN4220)

C[C@H](O)C#Cc1cnc2c(c1)C(=O)N([C@@H](C)CO)C[C@H](C)[C@H](CN(C)Cc1cncnc1)O2
inactive: cytotoxicity call (HSkMC) | cytotoxicity call (HepG2) | growth inhibition call (S. aureus RN4220)

COc1ccc(NC(=O)N(C)C[C@@H]2OCCCC[C@H](C)Oc3ccc(NS(=O)(=O)c4cccs4)cc3C(=O)N([C@H](C)CO)C[C@H]2C)cc1
inactive: cytotoxicity call (HSkMC) | cytotoxicity call (HepG2) | growth inhibition call (S. aureus RN4220)

C[C@@H]1CN([C@H](C)CO)C(=O)c2cc(NS(=O)(=O)c3cn(C)cn3)ccc2O[C@H]1CN(C)CC1CC1
inactive: cytotoxicity call (HSkMC) | cytotoxicity call (HepG2) | growth inhibition call (S. aureus RN4220)

CCS(=O)(=O)N1C[C@]2(C1)CN([C@@H](CO)c1[nH]c3cc(ccc3c12)OC)C(=O)Nc1c(noc1C)C
inactive: cytotoxicity call (HSkMC) | cytotoxicity call (HepG2) | growth inhibition call (S. aureus RN4220)

CCC(=O)OCC(=O)C1(OC(=O)CC)C(C)CC2C3CCC4=CC(=O)C=CC4(C)C3(Cl)C(O)CC21C (configuration not stated)
inactive: cytotoxicity call (HSkMC) | cytotoxicity call (HepG2) | growth inhibition call (S. aureus RN4220)

C[C@H]1CN([C@@H](C)CO)C(=O)c2cc(NC(=O)C3CCCCC3)ccc2O[C@H]1CN(C)S(=O)(=O)c1cn(C)cn1
inactive: cytotoxicity call (HSkMC) | cytotoxicity call (HepG2) | growth inhibition call (S. aureus RN4220)

CCCNC(=O)C[C@@H]1CC[C@@H]2[C@H](COC[C@H](O)CN2S(=O)(=O)c2ccc(Oc3ccccc3)cc2)O1
inactive: cytotoxicity call (HSkMC) | cytotoxicity call (HepG2) | growth inhibition call (S. aureus RN4220)
